# Reference: the supplement of paper PMC3334620
# In all, about 33,000 sequences were measured (“E-score (-0.5 to 0.5)”: median about -0.012, highest 2% from about 0.29 on). The list shows a part of the results.
# Molecular target: T1, Ybr033w (UniProt P38073)
# T1 sequence: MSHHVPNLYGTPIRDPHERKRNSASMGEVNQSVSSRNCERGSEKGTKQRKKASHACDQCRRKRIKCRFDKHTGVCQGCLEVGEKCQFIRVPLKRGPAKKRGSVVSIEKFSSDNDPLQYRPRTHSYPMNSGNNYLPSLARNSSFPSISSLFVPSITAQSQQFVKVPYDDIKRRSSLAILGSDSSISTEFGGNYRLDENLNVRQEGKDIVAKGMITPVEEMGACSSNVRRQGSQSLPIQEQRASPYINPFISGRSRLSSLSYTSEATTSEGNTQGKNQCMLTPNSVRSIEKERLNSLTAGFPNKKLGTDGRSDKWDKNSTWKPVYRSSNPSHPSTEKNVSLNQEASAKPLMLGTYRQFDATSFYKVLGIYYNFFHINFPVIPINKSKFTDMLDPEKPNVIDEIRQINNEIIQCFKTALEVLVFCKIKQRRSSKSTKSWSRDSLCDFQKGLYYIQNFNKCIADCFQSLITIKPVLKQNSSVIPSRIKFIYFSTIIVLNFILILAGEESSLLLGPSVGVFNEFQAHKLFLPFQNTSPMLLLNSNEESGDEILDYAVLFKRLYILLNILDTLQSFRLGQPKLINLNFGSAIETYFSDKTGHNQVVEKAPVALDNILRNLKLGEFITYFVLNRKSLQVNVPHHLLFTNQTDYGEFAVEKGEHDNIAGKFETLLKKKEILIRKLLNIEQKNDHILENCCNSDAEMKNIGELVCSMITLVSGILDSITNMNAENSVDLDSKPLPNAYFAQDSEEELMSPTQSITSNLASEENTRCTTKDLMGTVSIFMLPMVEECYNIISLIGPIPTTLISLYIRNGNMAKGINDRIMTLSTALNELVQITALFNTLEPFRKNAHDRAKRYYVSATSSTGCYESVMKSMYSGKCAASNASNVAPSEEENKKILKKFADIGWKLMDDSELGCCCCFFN
# Assay: PBM E-score (8-mer binding enrichment) (E-score (-0.5 to 0.5)); higher = stronger / more preferred TF binding; most listed sequences are background and not binding sites
# Settings: protein concentration: 200 nM; construct: GST-full length
# Outline: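 For each ungapped eight-base word taken together with its reverse complement, the Universal PBM Analysis Suite assigned an E-score. Binding data came from GST-tagged yeast transcription factors, applied at about 100-200 nM, on universal all-10-mer Agilent arrays made double-stranded by primer extension. Fluorescent anti-GST marked bound protein, and scans were normalised with masliner.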
row,Sequence,PBM E-score
1,CCCAATCA,-0.127
2,ATGTGACA,-0.0588
3,CGCCAAAG,-0.0413
4,ATAGATTG,0.107
5,GAGCCACA,-0.058
6,ACGACTGC,-0.132
7,AAACTCAC,-0.0491
8,CTGTGCTA,-0.08
9,TAACGTTA,0.081
10,ATTGATCC,0.466
11,AGAACTAG,-0.084
12,TCGCGCGA,-0.0895
13,AGATCCAA,0.145
14,CGAATACC,-0.0362
15,CAAGTGCG,-0.0668
16,GGGTCGAA,-0.117
17,AGATCTCC,-0.121
18,AGGCCGGG,-0.3
19,ATACCGGA,0.055
20,CGCAGAAG,-0.00752
21,CGAAACGC,-0.224
22,GAATGCCA,-0.112
23,AGTAGCGG,0.175
24,ATCCTTTC,0.0992
25,ACTGTCGA,-0.149

row,Sequence,PBM E-score
1,GACGTCGA,0.0559
2,ACAGACAG,0.134
3,ACCAGTGG,-0.0801
4,GGCCTAAA,-0.154
5,ACAGTGGT,-0.0815
6,CCGATCTA,-0.108
7,GGCGGGGA,0.149
8,ATATTAAG,0.285
9,GCAACGCC,-0.171
10,AAATGACC,0.0697
11,CACTGGTC,-0.167
12,AACGGCCA,0.113
13,AAAACTTT,0.134
14,ACACGCGT,0.133
15,CGGTTACC,-0.0541
16,GCGTCAAA,0.0113
17,AGTTGCTC,-0.15
18,AGCCATCC,-0.216
19,CTGAACAC,0.0553
20,GCGTAGGA,-0.0382
21,CACAGCCA,-0.174
22,AGCTGGGA,-0.155
23,GAGTACCC,-0.135
24,CGCCCAGC,-0.0661
25,AGGCCGTC,-0.316

row,Sequence,PBM E-score
1,CTACCTGC,-0.0433
2,CACGACCA,-0.0661
3,ATCCGAGA,0.115
4,AGGTATAG,0.0943
5,AACCCACT,-0.0101
6,GGGGGTGA,-0.173
7,CACCGGGC,-0.258
8,AGGAGGAT,0.066
9,AAGCCTAC,0.0593
10,CCAGCGAG,-0.0662
11,GCTTGTCC,-0.0427
12,ACCAGCCT,-0.189
13,ATCAATTC,0.125
14,GTTAAAAA,0.214
15,CCCGCTTC,-0.221
16,CTTGGAAA,0.223
17,GTTGCGCA,-0.165
18,TGTCCAAA,0.0758
19,ATTCCGTC,0.106
20,AAGACCTT,-0.0118
21,GTGTCCGA,-0.138
22,CCATGTCA,-0.0626
23,GGCAGCCC,-0.398
24,GAAGGCAC,-0.122
25,AGCAAGCG,-0.144

row,Sequence,PBM E-score
1,GGGGACAC,-0.39
2,CTTAGTGC,0.0606
3,CCTTGGAC,-0.181
4,ACAGGCAT,-0.2
5,AGGATCGA,-0.143
6,AGCCGGAG,0.161
7,CCTGAACC,0.0631
8,GTATACAC,0.00773
9,ATGGCGTC,-0.128
10,AAACGTGC,-0.156
11,CGAATTAA,0.112
12,CCATGTCG,-0.0501
13,AGCTTCCG,-0.00753
14,CCGGACCA,-0.0432
15,ACAAGCCC,-0.204
16,AAGTATAT,0.302
17,ACTTGCGA,0.196
18,ATCAGTAG,-0.012
19,ATCCGACC,0.0188
20,AGGTAAAG,0.195
21,ACAGTTGA,0.0196
22,CATGGACC,-0.13
23,ACCCCATC,-0.241
24,AATTACTG,0.0636
25,ACTGCGCA,-0.0973

row,Sequence,PBM E-score
1,CCCATAAC,0.0146
2,AGTTTATA,0.215
3,CCCAGGGA,-0.285
4,TGGAGTAA,0.232
5,CGAAATCC,0.127
6,CGCTAACA,0.00356
7,ACATATGC,-0.0708
8,CGAGTATA,0.0822
9,ATATTTTA,0.3
10,TCTTGCAA,0.0947
11,AGACCGAC,-0.0756
12,GCCACCGA,-0.256
13,ACGTTATC,0.00974
14,AGCACTGA,0.0694
15,ATCCTGAC,0.00908
16,AACAGCCT,-0.153
17,ATGGGTTA,0.237
18,GGCCCGAA,-0.074
19,AGAGAGAT,0.0882
20,CCGCTTCA,-0.0692
21,CAGACTTC,-0.168
22,AGGAGGTA,-0.0597
23,AGCACGCC,-0.0217
24,GCAGACAA,0.148
25,GGTCCAAA,-0.108

row,Sequence,PBM E-score
1,ATTTTAGA,0.0456
2,AGACCCAC,-0.218
3,ACCGCGCT,-0.0624
4,ACTGCGGA,-0.00461
5,ATCTGCAA,-0.0116
6,ACTCAGCT,-0.107
7,CCGACTGC,-0.129
8,AGGAACGA,-0.269
9,ACTCTCGC,0.0605
10,AGATATGG,0.138
11,CCCTGAAA,-0.0844
12,CCTGTAAA,-0.0517
13,AAAGCCAA,0.125
14,CGCGAAGA,0.0545
15,ACTTTTAA,0.125
16,CCACGAGC,-0.158
17,AGTTTCCC,-0.024
18,GATCGGGC,-0.169
19,ATTCGAGG,-0.0758
20,CTCAACAA,0.187
21,GATCCTAA,-0.0174
22,ATCTTTGG,0.0693
23,CCAGAGGG,-0.113
24,ATATTACA,0.256
25,GACATCCC,-0.0875

row,Sequence,PBM E-score
1,AGTCTAGC,-0.148
2,AATATAAA,0.344
3,GAATCGTC,0.0535
4,GGCAGAAC,-0.0491
5,CGGTTGGC,0.0939
6,CTTGGTAA,0.166
7,CAGTGCAG,-0.0894
8,CGTAGCCA,-0.182
9,ACGCACGC,0.078
10,CTAGGTGA,-0.186
11,GCGCTTGA,0.0547
12,AAACCTGA,0.111
13,ACTGAAGG,-0.0736
14,ATGTACAT,0.049
15,TTGGACAA,0.0435
16,CGTACCAG,-0.0586
17,AGCCGTCA,0.0945
18,AGCCACGG,-0.204
19,AACCATGG,-0.104
20,AGATCGTA,-0.183
21,ATGGTAAT,0.19
22,CAATAATC,0.171
